Assay results taken from PubChem BioAssay AID686970 (National Center for Advancing Translational Sciences (NCATS), 2013).
Among all 360,000 compounds or so, about 6,000 (1.7%) were called active. Inconclusive results, whose numbers are uncertain, are shown with a selection of clear calls. The call rests on the fitted dose curve; in most records, active means well fitted cell-killing curve with a large enough effect; inconclusive means small, poorly fitted or top-dose-only effect, or effect the other way; inactive means flat fitted curve, though single readings scatter. Potencies of inconclusive entries are left out as doubtful fits.

Experiment: qHTS for induction of synthetic lethality in tumor cells producing 2HG: qHTS for the HT-1080-NT fibrosarcoma cell line;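 further: NT is the 2HG producing partner of a matched IDH1 knockdown line; nearly all actives have a fitted effect of over 55% in size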;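 on activity, negative = less viability: 0% = DMSO-treated cells and -100% = media-only wells without cells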
Settings: HT-1080-NT fibrosarcoma viability, CellTiter-Glo ATP luminescence, 48 h; activity, negative = less viability: at 46.1 µM (top of the series) unless noted
How it was run: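 Fibrosarcoma NT cells, 750 per well in 5% FBS RPMI, were exposed to compound for 48 hours. Viability: CellTiter-Glo luminescence.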
Potency means the concentration at half of the fitted maximal effect; tags describe the fitted curve by direction and shape.

SMILES | Potency | activity, negative = less viability
Cc1ccc(N(C(=O)c2sc(C)nc2C)C(C(=O)NCc2ccco2)c2ccccc2)cc1 (stereo not drawn) | inactive | –
OCCCNCc1ccc(N(c2ccccc2)c2ccccc2)cc1 | inconclusive [cytotoxic, single point] | –
O=C(COC(=O)c1cccnc1Cl)NCC1CCCO1 (stereo not drawn) | inconclusive [rising, partial curve] | –
Cc1cc2c(cc1S(=O)(=O)Nc1ccc(OC(F)(F)F)cc1)OCC(=O)N2 | inconclusive [cytotoxic, single point] | –
CC(NC(=O)Nc1cccc([N+](=O)[O-])c1)(C(F)(F)F)C(F)(F)F | inconclusive [cytotoxic, single point] | –
COc1ccccc1-c1cnc(C(O)c2ccc(Cl)cc2C)[nH]1 (stereo not drawn) | inactive | –
O=C(Nc1nc2cc3c(cc2s1)OCCO3)C1=COCCO1 | active: 14.6 µM | –
O=C(Oc1ccccc1/C=C\C(=O)c1cc2ccccc2o1)c1ccccc1 | inconclusive [cytotoxic, single point] | –
CCCCCN=Cc1c(C)[nH]n(-c2nc3ccccc3s2)c1=O | active: 11.2 µM | –
CCc1ccc2[nH]c(=O)c(C(c3nnnn3CCOC)N3CCN(c4ccc(F)cc4)CC3)cc2c1 (stereo not drawn) | inconclusive [cytotoxic, single point] | –
CN1CCN(CCOCCOc2ccc(Br)cc2Cl)CC1 | inactive | –
Cc1cc(C)c(S(=O)(=O)N2CCC(C(=O)NCc3ccco3)CC2)c(C)c1 | inactive | –
Cc1cccc(NCc2ccc(O)c3ncccc23)c1 | active: 18.4 µM | –
c1ccc(-c2cc3nc(NCc4cccs4)ccn3n2)cc1 | inconclusive [cytotoxic, single point] | –
COCCNC(=O)c1onc(CCl)c1C(=O)OC | inactive | –
CCNC(=S)NNC(=O)c1cc(-c2ccccc2C)nc2ccccc12 | inconclusive [cytotoxic, full curve] | –
CC(=O)OCC=C1CCC2C3CC(C)C4=CC(=O)CCC4(C)C3C(O)CC12C (stereo not drawn) | inactive | –
CC(=O)OC1(C(C)=O)CCC2C3CC(C(F)(F)F)C4=CC(=O)CCC4(C)C3CCC21C (stereo not drawn) | active: 18.4 µM | –
O=C(N1CCOCC1)N1c2ccccc2Sc2ccccc21 | inconclusive [cytotoxic, single point] | –
COc1cccc(CNC(=O)C(=O)N2CCC3(CC2)OCCN3S(=O)(=O)c2ccc(C)cc2)c1 | inactive | –
Cc1c(C)n(CCN(C)C)c2ccc(C(=O)OCCN(C)C)cc12 | inconclusive [cytotoxic, single point] | –
CCCCc1ccc(NS(=O)(=O)c2cccs2)cc1 | inconclusive [cytotoxic, single point] | –
CCc1ccc(-c2nc(CSCC(=O)NCc3ccco3)c(C)o2)cc1 | inconclusive [cytotoxic, partial curve] | –

SMILES | Potency | activity, negative = less viability
Cc1ccc(-c2ccc(/C=N/c3ncn[nH]3)o2)cc1Cl | inactive | –
CCOC(=O)/C(C#N)=C1/C=CN(Cc2ccccc2)C=N1 | inconclusive [cytotoxic, single point] | –
COc1ccc(COc2cc(-c3cccc(OC)c3)nc3ccc(NC(=O)c4ccc(N(C)C)cc4)cc23)cc1 | inconclusive [cytotoxic, full curve] | –
Cc1cc(=O)oc2cc(OCC3CC(c4ccccc4Cl)=NO3)ccc12 (stereo not drawn) | active: 0.708 µM | –
CCCCN1C(=O)c2cccc3cc(O)cc(c23)C1=O | inconclusive [cytotoxic, single point] | –
Cc1ccc(Cl)cc1N1CCN(CC(=O)Nc2ccc(CN3CCCCC3)cc2)CC1 | active: 20.6 µM | –
NC(=O)c1nsc(C(=O)N(c2cccc(F)c2)C(C(=O)NCC2CCCO2)c2c[nH]c3ccccc23)c1N (stereo not drawn) | inconclusive [cytotoxic, full curve, poor fit] | –
CCOC(=O)C1(Cc2ccccc2)CCN(Cc2ccc(COC)o2)CC1 | inactive | –
COc1ccccc1-n1cc([C@@H]2C[C@H]3CN(c4ccccc4)C(=O)[C@]34CCCN24)cn1 | inconclusive [cytotoxic, single point] | –
Cc1ccccc1OCCNc1cc(N2CCN(CCO)CC2)ccc1[N+](=O)[O-] | inconclusive [cytotoxic, single point] | –
CCSc1nnc(NC(=O)CSc2nc3c(c(=O)n2C)SC(C)C3)s1 (stereo not drawn) | inactive | –
CSc1nc(N(CCO)CCO)c2sc3nc(-c4ccco4)c4c(c3c2n1)CCC4 | inconclusive [cytotoxic, single point] | –
Cc1ccc([N+](=O)[O-])c(OCCCN2CCC(Cc3ccccc3)CC2)c1 | inconclusive [cytotoxic, single point] | –
COC(=O)c1c(NC(=O)c2ccc(S(=O)(=O)N3CCOCC3)cc2)sc2c1CCN(C)C2 | inconclusive [cytotoxic, single point] | –
CC(C)Nc1nc2ccccc2c(=O)[nH]1 | inactive | –
COc1ccc(/C=C(\NC(=O)c2ccccc2Cl)C(=O)NCCCC(=O)O)cc1 | inactive | –
COc1ccc(-c2csc(-c3cc4ccccc4oc3=N)n2)cc1 | inconclusive [rising, partial curve] | –
Cc1ccc2c(c1)N(C(=O)CCC(=O)NCCCN1CCC(Cc3ccccc3)CC1)CCO2 | inconclusive [cytotoxic, single point] | –
Fc1cccc(Cl)c1Cn1nnc2c(NCc3ccncc3)ncnc21 | inconclusive [cytotoxic, single point] | –
CCCOc1ccc(N2C(=O)CC(S/C(N)=N/N=C(\C)c3cccs3)C2=O)cc1 (stereo not drawn) | inconclusive [cytotoxic, single point] | –
CC(O)(CS(=O)(=O)Cc1cccc(C(F)(F)F)c1)C(=O)Nc1cccc(C(F)(F)F)c1 (stereo not drawn) | inconclusive [cytotoxic, single point] | –
O=C(CCc1nc2ccccc2c(=O)[nH]1)NCc1cccc(Cl)c1 | active: 20.6 µM | –
Cc1ccc(/C=C2\SC(=S)N(c3c(C)n(C)n(-c4ccccc4)c3=O)C2=O)cc1 | inconclusive [cytotoxic, single point] | –

SMILES | Potency | activity, negative = less viability
CCN(CC)CCCN=Cc1c(O)n(Cc2ccccc2)c(=O)c2ccccc12 | inconclusive [cytotoxic, single point] | –
COc1ccc(CNC(=O)C2(C)Cc3c(-c4ccc(C(N)=O)cc4)ccnc3O2)cc1OC (stereo not drawn) | inconclusive [rising, partial curve] | –
CCCCCc1cc(=O)oc2c(C(CCN3CCCCC3)c3ccc4c(c3)OCO4)c(OC)cc(OC)c12 (stereo not drawn) | inconclusive [cytotoxic, single point] | –
Cc1nn(Cc2ccccc2)c(Cl)c1C(=O)OC(C)C#N (stereo not drawn) | inconclusive [cytotoxic, single point] | –
CN1OC[C@@H]2CN(C(=O)Nc3ccccc3)[C@H](c3ccc(N4CCCCC4)cc3)C[C@@H]21 | inactive | –
O=S(=O)(c1ccc(NC(=S)NCc2cccnc2)cc1)N1CCCCC1 | inconclusive [cytotoxic, partial curve, poor fit] | –
O=C(Nc1ccccc1Cl)N1CCN(Cc2ccc3c(c2)OCO3)CC1 | inactive | –
CC(=O)OCC(=O)[C@@]1(O)CC[C@H]2[C@@H]3CCC4=CC(=O)C=C[C@]4(C)[C@H]3C(=O)C[C@@]21C | inconclusive [rising, full curve, poor fit] | –
Cc1ccc(C)c(SCC(=O)Nc2nnc(-c3ccccc3)o2)c1 | – | inconclusive: -30.6% [cytotoxic]
COC(=O)c1cccc(/C=N/NC(N)=S)c1O | inconclusive [rising, single point] | –
O=C(CSCc1ccccc1)NC1CCSC1=O (stereo not drawn) | inconclusive [rising, single point] | –
Cc1ccc(C)c2[nH]c(=O)c(C(c3nnnn3Cc3ccco3)N3CCc4ccccc4C3)cc12 (stereo not drawn) | inconclusive [cytotoxic, single point] | –
CCCCCCN1C[C@H](O)[C@@H](n2cc(COC(=O)c3ccccc3)nn2)C[C@@H]1c1ccc(Cl)cc1 | inconclusive [cytotoxic, single point] | –
CC1(C(=O)NCc2cccc3ccccc23)CCN1Cc1cccc2c1OCO2 (stereo not drawn) | inconclusive [cytotoxic, single point] | –
COc1cc(/C=C2/C(=O)NN(c3cccc(C)c3)C2=O)ccc1OC(=O)c1ccco1 | inconclusive [cytotoxic, single point] | –
O=C(COc1ccc2ccccc2c1)N/N=C/c1ccccn1 | inconclusive [cytotoxic, single point] | –
CCOC(=O)/C=C/C(=O)Nc1ccccc1-c1ccccc1NC(=O)/C=C/C(=O)OCC | inconclusive [cytotoxic, single point] | –
CN(C)c1ccc(NC2=C(Cl)C(=O)c3ccccc3C2=O)cc1 | active: 3.26 µM | –
CC(C)(C)OC(=O)C[C@@H]1C/C=C\C[C@H](CC(=O)N[C@H](CO)Cc2ccccc2)C(=O)N[C@@H](Cc2c[nH]c3ccccc23)COC1=O | inactive | –
COCc1nc2oc3ccc(C)cc3c(=O)c2cc1C(=O)OC | inconclusive [rising, single point] | –
COc1ccc(Cn2ccnc2SCC(=O)Nc2ccccc2OC)cc1 | inactive | –
CCOc1cc(/C=C2\C(=O)N(Cc3ccco3)C(C)=C2C(=O)OC)ccc1O | inconclusive [cytotoxic, single point] | –
